PMC5515408
This is one part of the list. At the low end of the ranking the order means little.

System: MYC (p64) + MAX (p21), in MYC:MAX
Experiment: protein-binding microarray (anti-MAX antibody)
Conditions: PBM: 15 mM Tris-HCl pH 7.5, 100 mM KCl, 0.075% NP40, 7.5 mM beta-mercaptoethanol, 375 ng/ul BSA, 8 ng/ul poly(dA-dT):(dA-dT), 550 ng complex, 60 min, room …; high values mean tight binding; double strand, one strand shown; sequences stand for … in CCGGC…TTAATAGCTAAGATTACTATATCGACG

Sequence | binding signal (log2 normalized fluorescence)
TGATAGAAGGTA | -0.0427
TGAGAAGTTGTA | -0.0217
TGAACTTCCGTA | 0.111
ATTCACGTGGTA | 0.958
TGACGGATCGTA | 0.00109
TGAATAATCGTA | -0.0572
TCCCACATGGTA | 0.662
TGACCTGTTGTA | 0.216
TGAATTAGCGTA | -0.0202
TGATTTCTGGTA | -0.128
TGAGGACCCGTA | 0.0118
TGATAGGTGGTA | -0.0359
TTAAAGGAGCAC | 0.18
TGATGGACGGTA | 0.0655
TGATGGAGTGTA | 0.0616
TAGTACGTGGTA | 0.336
TCACACGTAGGA | 0.457
TGAGTGCAGGTA | 0.0764
TGACCTTAGGTA | 0.0902
TGAGTAGCTGTA | -0.0992
TGATGACGTGTA | 0.245
TGACTAGCGGTA | 0.00614
TGAGTCGATGTA | -0.0631
TGATTACGCGTA | 0.0729
TGATTATAAGTA | -0.177

Sequence | binding signal (log2 normalized fluorescence)
TGACACTTGTTA | 0.3
TGATTGACTGTA | -0.12
TGATACGAGGTG | 0.129
TGACGGTCTGTA | 0.052
TGATATTAAGTA | -0.187
TGAACTAAGGTA | 0.0714
TGAGCCCGTGTA | 0.0147
TGAAGATTTGTA | -0.0356
TCACACGTGATA | 0.75
TGACACGATATA | 0.408
TGAAAGAGAGTA | -0.0282
TGAACATAAGTA | 0.139
TGAGTGGTAGTA | 0.216
TCACACTCGGTA | 0.334
TGAGTCAGCGTA | 0.0477
TGAAATAGCGTA | -0.0799
CGGCAAGTGGTA | 0.258
TGACGGTCGGTA | 0.00871
TGAGATATAGTA | -0.255
TGAACCACTGTA | 0.264
TGATCGGACGTA | -0.027
TGAGTGGTCGTA | 0.0867
TGAAATGGTGTA | 0.209
TGACACTTGGTG | 0.204
TGAACAACCGTA | 0.108

Sequence | binding signal (log2 normalized fluorescence)
TGACATAACGTA | 0.171
TGAAAATGTGTA | 0.286
TGAGGCGTCGTA | -0.00813
TGAACAAGAGTA | 0.0745
TGACTTGATGTA | 0.193
TGAGCGTTTGTA | 0.0822
TGACGCCCGGTA | 0.231
TGAGCCATAGTA | -0.102
TGAAATCATGTA | 0.225
TGATTGGGTGTA | -0.0624
TGACCCGTGTTA | 0.364
TGAGTTATGGTA | -0.133
TGACCCGTCGTA | 0.0664
TGAATCTGCGTA | 0.0452
TGAGTCTTTGTA | -0.289
TGACTGACCGTA | 0.145
TGAGCTACGGTA | -0.00753
TGAATGGACGTA | 0.317
TGACCGAGGGTA | 0.296
TGATAACGTGTA | 0.499
CGGCACGTTGTA | 0.562
GGAGAAGTGGTA | 0.0907
TGACTCCCTGTA | 0.242
TGATGATTAGTA | -0.151
TGATATTCAGTA | 0.0713

Sequence | binding signal (log2 normalized fluorescence)
TGAACGGTCGTA | -0.227
TGATTGTACGTA | 0.0238
TGACCTGATGTA | 0.173
TGAAGTCCTGTA | -0.00573
TGAACGGATGTA | 0.0491
TGAAATAGGGTA | -0.0659
TGAAACTCGGTA | -0.031
TGAGGACACGTA | 0.137
TGATTGTCCGTA | -0.146
TGAGTCGTTGTA | 0.0422
TGATACCAGGTA | 0.0486
TGACATTGAGTA | 0.237
TGATGATCCGTA | 0.0332
TGAGGTTTGGTA | -0.0536
CGACACGTGGGC | 0.893
TGAAGTCAAGTA | 0.0942
TGATAGCCGGTA | -0.147
ATAGCTAAGATT | 0.0482
TGAGCGAAAGTA | 0.02
TGACCCCCTGTA | 0.365
TGACATGCTGTA | 0.524
TGAGCAAAGGTA | 0.026
TGAGGAGTTGTA | -0.0459
TGATCGCTCGTA | -0.0784
TGACACGTACTA | 0.373

Sequence | binding signal (log2 normalized fluorescence)
TGAAGCACAGTA | 0.202
TGAGCTTCAGTA | -0.201
TGATCTCTAGTA | -0.0718
TGATACGCGGTA | 0.121
TGAAATAAGGTA | 0.0211
TGATTGGGCGTA | -0.181
TGACTATTGGTA | -0.0597
TGATTGATGGTA | -0.0118
TGAATCAGAGTA | 0.0753
TGACTGGGAGTA | -0.142
TGAATATCAGTA | 0.0287
TGACCAGGTGTA | 0.341
TGAATCACAGTA | -0.0142
TGAGTATCTGTA | -0.104
TGATATAGAGTA | -0.213
TGAGCGCTGGTA | 0.125
TGACAATTCGTA | 0.0308
TGATGTAATGTA | 0.000857
TGTACCGTGGTA | 0.275
TGACATGCAGTA | 0.219
TGATATGACGTA | 0.0181
TGGCACTTGGTT | 0.185
TGAGCGTACGTA | -0.0291
TGCCACGAGGAA | 0.707
TGACTTCCGGTA | 0.0704

Sequence | binding signal (log2 normalized fluorescence)
TGAAACAGTGTA | 0.0867
TGAAACTGGGTA | -0.0496
TGAACAGTCGTA | 0.104
TGATGATCTGTA | 0.114
TGAAAGATCGTA | -0.0267
TGATTTCTCGTA | -0.0646
TGAGTCGAGGTA | 0.0684
TGAAACCTTGTA | 0.0437
TGATAAACGGTA | -0.106
TGAAGAAGGGTA | -0.0575
TGAAGTTATGTA | -0.0486
TGAGACGTGGTA | 0.502
TGATAGTTTGTA | -0.214
TGACACGTCTTG | 0.301
TGACGGCATGTA | 0.495
TGAAGGTGTGTA | 0.256
TGACCTGAAGTA | 0.159
TGATGTAACGTA | 0.116
TGATGCTTAGTA | -0.0553
TGCCACGCGGAA | 0.651
TGCTACGGGGTA | 0.0135
TGATGTGCGGTA | 0.226
TGCGGCGTGGTA | 0.399
TGACCAGATGTA | 0.338
TGAGATGCCGTA | 0.149

Sequence | binding signal (log2 normalized fluorescence)
TGACACGTGAGA | 0.826
TAACACCTGGCA | 0.625
TGACCCGTTGTA | 0.131
TGTCACGTTGTA | 0.642
TCCCACCTGGTA | 0.512
TGACGCGCTGTA | 0.468
TGATTTAATGTA | 0.0643
TGAATCATCGTA | 0.0995
TGAAAGGGAGTA | 0.0508
TGAGCATATGTA | 0.395
TGAAGAAATGTA | 0.00236
TGATATTTGGTA | -0.137
CCCCACGTGGTA | 0.854
TGATGGGTTGTA | 0.152
TGCCGCGTGTTA | 0.583
TGAGTTAGCGTA | -0.0921
TGAACACAGGTA | 0.43
TGATCTCGGGTA | 0.0794
TGAGGTAATGTA | 0.138
TGACAGCCCGTA | 0.168
TTAAACGTGGTA | 0.608
TGATCGTTTGTA | -0.0191
TGATGCTCCGTA | 0.0834
TGATGTATGGTA | 0.123
TGAATAACAGTA | 0.0502
